Source: the GPR68 mutational scans of Howard et al. (2025)
Scores whose standard error is large were omitted. The source holds two more conditions with little spread; they are left out. In variant names, del marks residues removed and ins residues inserted between the two positions. For part of these data: The data file names ogerin without a concentration.

B1: GPR68, Q15743 (parent)
chain: MGNITADNSSMSCTIDHTIHQTLAPVVYVTVLVVGFPANCLSLYFGYLQIKARNELGVYLCNLTVADLFYICSLPFWLQYVLQHDNWSHGDLSCQVCGILLYENIYISVGFLCCISVDRYLAVAHPFRFHQFRTLKAAVGVSVVIWAKELLTSIYFLMHEEVIEDENQHRVCFEHYPIQAWQRAINYYRFLVGFLFPICLLLASYQGILRAVRRSHGTQKSRKDQIQRLVLSTVVIFLACFLPYHVLLLVRSVWEASCDFAKGVFNAYHFSLLLTSFNCVADPVLYCFVSETTHRDLARLRGACLAFLTCSRTGRAREAYPLGAPEASGKSGAQGEEPELLTKLHPAFQTPNSPGSGGFPTGRLA

Assays:
[1] = variants of: B1; assay: cAMP reporter score (Enrich2 score, wild type = 0); higher = more signal; HEK293T, FACS bins
[2] = variants of: B1; assay: surface expression score (Enrich2 score, wild type = 0); higher = more signal; HEK293T, FACS bins

Variant	cAMP reporter score ([1]; pH 5.5)	cAMP reporter score ([1]; pH 6)	cAMP reporter score ([1]; pH 6, modulator: ogerin)	cAMP reporter score ([1]; pH 6.5, modulator: ogerin)	surface expression score [2]
Y47E	-1.59	-1.17	-1.38	-1	-2.17
Y47N	-1.12	-1.69	-0.506	-1.91	-2.74
Y47V	1.14		1.49	-0.194	
Y47H	-0.424	-0.75	-1.13	-1.19	-1.22
Y47W	1.37	0.611	1.11	1.15	0.277
Y47L	0.48	0.3	1.11	0.662	-0.297
Y47Q	-1.06	-0.95	-1.56	-0.524	-1.89
Y47A	0.121	-0.008	-0.122	-0.011	
Y47G	-0.442	-0.351	-0.871	-1.31	-1.92
Y47K	-1.47	-1.44		-1.96	-3.63
Y47C	-0.472	-0.28	-0.291	-0.568	-0.847
Y47I	1.21	1.35	1.47	2.04	0.992
Y47M	0.343	0.125	0.658	0.218	-0.686
Y47S	0.546	0.058	0.247	0.038	-1.67
Y47D	-1.21	-0.777	-1.27	-0.915	-3.32
Y47T	-0.023	-0.635	0.273	0.103	-1.39

Variant	cAMP reporter score ([1]; pH 5.5)	cAMP reporter score ([1]; pH 6)	cAMP reporter score ([1]; pH 6, modulator: ogerin)	cAMP reporter score ([1]; pH 6.5, modulator: ogerin)	surface expression score [2]
Y47R	-0.475	-1.02	-0.182	-1.01	-2.62
Y47P	-1.53	-1.58	-0.772	-1.17	-2.01
K51T	-0.399	-0.741	-0.43	-1.38	-1.19
K51A	-0.469	-1.55	-0.885	-1.26	-1.36
K51L	-0.677	-1.24	-1.03	-1.5	-1.67
K51E	-0.658	-0.332	-0.553	-0.748	-0.683
K51M	0.188	-1.3	-0.055	-0.668	-1.25
K51N	-1.02		-0.897	-1.53	-1.78
K51G	-1.32		-0.706	-1.12	
K51F	-0.715	-1.05	-1.3	-1.08	-2.11
K51V	0.287	-0.617	-0.339	-1.44	
K51C	-0.607	-0.899	-0.803	-0.835	-1.54
K51P	-0.476	-1.15	-1.22	-0.833	-3.7
K51R	0.681	-0.744	0.89	0.399	-0.084
K51S	0.306	-0.84	-0.502	0.073	
K51H	-0.646		-0.704	-0.726	-2.82
